From patent US5994629A, “Positive selection” (priority 1991, dated 1999)

Tests used:
Assay type in all cases: cell-based
[1] = test system: GUS- tobacco leaf discs; assay: Shoot regeneration with sitosteryl-β-D-glucuronide and tridemorph, GUS-; conditions: 121 mg/l, tridemorph 0.1 mM, 40 days
[2] = test system: GUS+ tobacco leaf discs; assay: Shoot regeneration with sitosteryl-β-D-glucuronide and tridemorph, GUS+; conditions: 121 mg/l, tridemorph 0.1 mM, 40 days
[3] = test system: tobacco leaf discs; assay: D-xylose and D-xylulose as carbohydrate sources, tobacco; conditions: xylose 0; sucrose 10 g/l; xylulose 0
Method: The standard leaf disc procedure for tobacco as described in Example 13 is performed, except that inoculation with Agrobacterium and the co-cultivation step are omitted. Benzyladenine (1 mg/l) is used as cytokinin and the carbohydrate content is as indicated below. The number of regenerated shoots from each leaf disc are registered after 21 days.

Compound	Regenerated shoots per leaf disc ([1]; BA 0.1 mg/l)	Regenerated shoots per leaf disc ([1]; BA3GN sodium salt 1.88 mg/l)	Regenerated shoots per leaf disc ([2]; BA 0.1 mg/l)	Regenerated shoots per leaf disc ([2]; BA3GN sodium salt 1.88 mg/l)	Number of regenerated shoots each leaf disc [3]
CC[C@H](CC[C@@H](C)[C@H]1CC[C@H]2[C@@H]3CC=C4C[C@@H](O[C@@H]5O[C@H](C(=O)O)[C@@H](O)[C@H](O)[C@H]5O)CC[C@]4(C)[C@H]3CC[C@]12C)C(C)C [Sitosteryl-β-D-glucuronide, β-sitosteryl-β-D-glucuronidide]	1.9	0.1	2.4	2.4	–
OC[C@H]1O[C@@](CO)(O[C@H]2O[C@H](CO)[C@@H](O)[C@H](O)[C@H]2O)[C@@H](O)[C@@H]1O [sucrose]	–	–	–	–	2.3
